Results: the supplement of paper PMC11417369
± gives the standard deviation of the averaged measurements. The list shows a part of the results.

system: PfAP2-G AP2 domain (GST-tagged); experiment: gcPBM binding intensity (ln(normalized median fluorescence intensity)); higher = stronger DNA binding
Outline: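 Binding intensity is the highest Masliner-normalised natural-log median intensity over replicate spots in either probe orientation. To obtain it, GST-tagged P. falciparum DNA-binding domains made in E. coli were incubated for 1 h on an Agilent 4 × 180k array of primer-extended double-stranded 36-bp intergenic genomic probes plus negative controls. Detection used Alexa488 anti-GST antibody with scanning at 488 nm.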

Sequence | gcPBM binding intensity (ln)
TGGGCACCCATATACACACACAAATACAATGATAAA [CACACA_site4762] | 10.2 ± 0.22
GGAAAAGGTATCCGTTCACACATAAATGGATACCAT [CACACA_site5072] | 10.5 ± 0.4
AAAAAAAAAAAAATGTGTACATACATATATTTATAT [XGTACX_site3076] | 11.5 ± 0.88
ATTAAAAAATTACAAGCATGCTTGTTAAAATTTTTT [TGCATGCA_site941] | 9.49 ± 0.057
CTTTTTTTTTTAAATTGTACAAATGTGATGTAATAG [XGTACX_site3219] | 10.9 ± 0.63
CAATCAAATGGACACACACACACCTAAACATAAAAG [CACACA_site5524] | 10.9 ± 0.71
AAAAAAAGATTATACACACACATATATAAACCTACA [CACACA_site710] | 9.97
TTTTTTTTTTTTGAAACATGCATTGTTTTATTCTTA [TGCATGCA_site15] | 9.68 ± 0.24
TCTATACCTATTCTTACACACATATGTATATATATA [CACACA_site563] | 10.14 ± 0.092
AATAATAACTGTAGGTGTACGTAAAAAAAAAATTAT [XGTACX_site3133] | 11.7 ± 0.96
ATTGTGTTCATCAGCACACACAACATCATGCAATAA [CACACA_site6960] | 10 ± 0.13
ATATATATATAATCAAGTACACAGTAATAAAAAGAA [XGTACX_site1070] | 11.3 ± 0.6
TTTTTTTTTTTTTGTTGTACAATACTTAATCATTAT [XGTACX_site3422] | 11.2 ± 0.92
AAAAATTTAATGAAATGTACATATATGTTATTAATA [XGTACX_site6091] | 10.8 ± 0.4
AATAACCACCAACACACACACATATATATATATATA [CACACA_site3540] | 10.1 ± 0.22
ATAATAATAATAAAAAGTACATTTAATTATATAGAA [XGTACX_site7742] | 11.3 ± 0.83
TATATGTTTTAAAAGTGTACTTTAGTTTCAATTTTT [XGTACX_site4269] | 11.3 ± 0.92
AAGAATGTTAATAGTACACACAATTATTATATAAAT [CACACA_site3739] | 11.3 ± 0.91
AATAAAAAAAGTTTTTTTTTTTTTTAAACAATAGAC [CACACA_negctrl_site1061] | 9.83 ± 0.099
TAAATGCACATATACACACACCCAATTTTAAGTTTT [CACACA_site7428] | 10.05 ± 0.057
ATACATATTACATGTTGTACTCCAACAAAAATGCCC [XGTACX_site3201] | 11.6 ± 0.95
TTAATTTCATTTTCTACACACCTATCCTTTTTTTTT [CACACA_site772] | 10 ± 0.11
ACATCAAGAATTATTAAGAATACGGATAGATAAAAT [GTGCAC_negctrl_site261] | 9.98 ± 0.028

Sequence | gcPBM binding intensity (ln)
ATGTGATATAAGTACACACACATATGTATATAGAAT [CACACA_site1823] | 11.5 ± 1.1
TTTCAAAATGTGTAAAATAAAAATAATATCATTACA [TGCATGCA_negctrl_site521] | 9.71 ± 0.014
GAAAAGAACAAGAGCATGCACTTAATAAGAATAATA | 9.75 ± 0.028
TGTTTCTTATTTTTTTCACACACTAAACATTTCAAA [CACACA_site2218] | 10.2 ± 0.2
AATGTATATATGTAATGTACATATGTAATGTATATA [XGTACX_site6509] | 10.8 ± 0.41
TTTTGTTTTGTTTTGTTTTGTTTTGTTTTATTTTAT [GTGCAC_negctrl_site383] | 9.86 ± 0.27
AATATAGATATAACCACACACATACATCTAATTCTA [CACACA_site1760] | 10.04 ± 0.028
TATGTCGACATTTAAAGTACAAAAAAAAAAAAAAAA [XGTACX_site8985] | 11 ± 0.96
ATTTATTTAAACAAATCACACACAAATATATATACA [CACACA_site8622] | 10.2 ± 0.17
TATATTAAAATATTCACACACTAACGTAAATCATTG [CACACA_site5520] | 9.89 ± 0.014
TACACGTTCTACATTTGTACTTAATTTATACATAAG [XGTACX_site1579] | 11.2 ± 0.73
TACGTCTTTTTTTTGGTGCATAATTTTTTTGTACAA | 10.8 ± 0.44
AATTTTGTTAAAAGGACACACAATTCAATATATTAA [CACACA_site647] | 11.1 ± 0.73
ATTACATGATATATCACACACACATATAGATATATA [CACACA_site7352] | 9.97 ± 0.042
GCTATTAATTTATAAGCACACAATATAAATATATAT [CACACA_site2251] | 10 ± 0.11
CATACATAGATATATACACACATACCTATAAATACA [CACACA_site6513] | 10.1 ± 0.23
TATATATGTGTTATATACCCTTTTTTATATATTAAT [XGTACX_negctrl_site313] | 9.96 ± 0.13
TAAAAATCCACAAGCACACAAATGTACATATATATA [CACACA_site2462] | 11.1 ± 0.55
ATAGAACAGAAAAGGCGTACAATAATATGTAAACAA [XGTACX_site2828] | 11.8 ± 1.1
AAAAAAAAAATATGTACACACATATATAATACATAA [CACACA_site1639] | 11.5 ± 0.91
TATAAAAAGCATAACACACACATGTCAATATATATA [CACACA_site1111] | 9.98 ± 0.2
ATTAAAAAAATATAAACACACAAAAAAAAAATATAC [CACACA_site1100] | 10.1 ± 0.15
TAATGAAAAAATAAAAGAATAAATAAATAAATAAAT [TGCATGCA_negctrl_site130] | 9.32 ± 0.23

Sequence | gcPBM binding intensity (ln)
AGAAAAGAGAAAAGTAGTACAAAGGATCATTTAAAA [XGTACX_site5294] | 11.3 ± 0.71
TTAAGTCCGTTAACAGTGCATTTTTTCTTTTATGTA [GTGCAC_site9867] | 10.2 ± 0.11
AAAAATTATATATATATATATATATATATATGTATA [GTGCAC_negctrl_site488] | 9.515 ± 0.021
TGGTAAATTTACCGTTGTACATTCATTTATAACATT [XGTACX_site8910] | 10.8 ± 0.51
AAGAATATTAATATAAATAAGTAAATAAATAAATAA [CACACA_negctrl_site417] | 9.78 ± 0.11
CATATGTCTTGAGATCGTACGTTATTTTTTTTATTT [XGTACX_site1381] | 10.9 ± 0.4
TATATATATATATATATATATATATATATATGTATA [TGCATGCA_negctrl_site17] | 9.72 ± 0.67
GTATTATTATTATGCACACAAAAATATTTATACATA [CACACA_site3656] | 10.3 ± 0.27
TATAAATTTAAAATGACACACACTAAAATTATTTAA [CACACA_site1239] | 10.3 ± 0.33
TTTTAATCTTAATTATGTACATATAAAATGTGTATA [XGTACX_site7382] | 11.2 ± 0.69
CTATTTCAATTTAGTGCACACATTTTAATTTATAAG [CACACA_site2040] | 10.7 ± 0.55
ACATACACATATACATGTACATATATATATATATAT [XGTACX_site5082] | 11 ± 0.58
TATGAAAAGATATATACACACATAATAAAGGTATAT [CACACA_site7713] | 10.08 ± 0.057
CATTATTATTAACATACACACGTGTTAAATACACCC [CACACA_site6118] | 10.4 ± 0.35
ATTAAAACAAAATGTACACACATATCATTTAATGAC [CACACA_site6543] | 11.2 ± 0.8
TTTTTAGAAAGACATGCATGTAATAAAAATAAATAA [TGCATGCA_site685] | 9.855 ± 0.049
ATACATATATGCTTCTGTACACATAATTTATAAAAA [XGTACX_site7000] | 11.6 ± 0.79
ATATTCATTAACCACACACACAAAAAAAATAAAATT [CACACA_site3801] | 10.2 ± 0.25
ATATATGTATTTAATACACACAAAACTTTCATTCCA [CACACA_site3531] | 10 ± 0.15
AAATATAATAACATAACACACACATGTATTTATAGG [CACACA_site8009] | 10.2 ± 0.2
TTTTAATAAATTCAAAACATAAAAAGGAAAAAAAAA [XGTACX_negctrl_site471] | 9.81 ± 0.2
TAGATTTTTATGCGTGCACACATTTAAAAAAAAAAC [CACACA_site3421] | 10.6 ± 0.48
ATACCTACATACATACGTACATATATATATATAATG [XGTACX_site234] | 11.4 ± 0.91

Sequence | gcPBM binding intensity (ln)
TTTTTTTCATAAGAAGCACACAAAAAATGATAGAGA [CACACA_site8401] | 10.5 ± 0.38
ATATATATATATATATGTACTTATTTGTATAAATAC [XGTACX_site8031] | 11.3 ± 0.96
TATAATGAGAAGATATAATATATAGGGGGTAATTCT [GTGCAC_negctrl_site228] | 10.5 ± 0.16
ATTCTTTATTATTCGCCACACACATATATATATATA [CACACA_site9009] | 10.3 ± 0.24
TTTTTATTATTCCATAGTACAGAAAAAATGATATAT [XGTACX_site3431] | 10.9 ± 0.64
TATTGGAAAATTAGAAGTACTTTCATATATTAGACT [XGTACX_site4503] | 11.3 ± 0.81
ATATTTTCCCTTGTTTTACACACGTGCTGATATGAG [CACACA_site8672] | 10.3 ± 0.14
AATTTGAAATATGTGGTGCAGTTATATAATATGTTT [GTGCAC_site9885] | 10.29 ± 0.049
ATATAAAAAAATAATAAATAAATAAAAAGATTTCTT [XGTACX_negctrl_site110] | 9.47 ± 0.23
CTTGTATAGAAACACACACACACTTTCTTTTTTTAA [CACACA_site1964] | 10.2 ± 0.23
TATATTAATAAAGGTACTACACGGAAATGGAAATAT [XGTACX_site7760] | 11.3 ± 0.68
TGTAGTCTGGAGAAAAGTACACAGTATCTGGTAACC [XGTACX_site2033] | 11.4 ± 0.94
ATATAGAATAAAACTATACACACCTATATTTAAACA [CACACA_site1902] | 9.88 ± 0.042
TGTAATCAAAAAAATAGTACATAAATTGTGTATACT [XGTACX_site5908] | 11.3 ± 0.81
AACAAATACGAACACACACACACACTAAAAAAAAAA [CACACA_site6386] | 10.4 ± 0.42
AGGATATAATACCATACACACATTTATAAAATAACA [CACACA_site1930] | 10.13 ± 0.078
ATAATATGAAAACACACACACACACCCAAAAAAAAA [CACACA_site2011] | 10.4 ± 0.38
CACATTAATTTTTGGGTGCACTTGGGAAATTTTGGT | 10.8 ± 0.49
ATATATATTATATATATATATATATATATATATATA [CACACA_negctrl_site493] | 9.71 ± 0.59
TAATAAATAAATGACACACACACACGCAAAAAAAAA [CACACA_site7275] | 10.4 ± 0.32
